± gives the standard deviation of the averaged measurements. This is one part of the list.

In the assay the test system is PfAP2-I AP2 domain 3 (GST-tagged). Nature of the assay: gcPBM binding intensity (ln(normalized median fluorescence intensity)); higher = stronger DNA binding. A digest of the protocol:
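The highest Masliner-normalised natural-log median intensity across replicate spots of either probe orientation is reported as binding intensity. GST-tagged P. falciparum DNA-binding domains expressed in E. coli were applied for 1 h to an Agilent 4 × 180k array of primer-extended double-stranded 36-bp intergenic genomic probes plus negative controls, and bound protein was detected with Alexa488 anti-GST antibody and scanned at 488 nm.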
As for “TTTGCACCGTTTAAGTGTACAGAATTATGACATATA [XGTACX_site6735]”, the “gcPBM binding intensity (ln)” value came out at 8.73 ± 0.099.

For “TCAAAAATATTCTGGAGTACCTTTTTAAAGGTATAG [XGTACX_site6893]”, the “gcPBM binding intensity (ln)” value turned out to be 7.43 ± 0.51. The same measure for “ATTGCATATAATGGCACACATAAATCCATAATATAT [CACACA_site297]”: 8.36 ± 0.29; for “TGTGGTTACATGTGCACACACTTATTTCGTTCTTAT [CACACA_site4907]”: 9.75 ± 0.14; for “TAAATATATATATACACACACATACACAAAAAAAAA [CACACA_site3580]”: 8.02 ± 0.42. “TATACATACCATAATGCATGTAAGAACAAATAACTG [TGCATGCA_site264]”: the “gcPBM binding intensity (ln)” value was determined as 7.83 ± 0.6. The result for “AAAAAAAAAAAAAAGGTGCATACTTTGAATTAATAT [GTGCAC_site9401]” reads 9.87 ± 0.17; that for “ATGACTCTCAAGTTTGCACACATTTATATTTTTTAA [CACACA_site2605]”, 9.09 ± 0.22; that for “AATATAAATAATATATGTACATATATATATATATAT [XGTACX_site1021]”, 9.01 ± 0.69. The same measure for “AAAGTATTCTTTACACGTACATATATATAAATATAA [XGTACX_site7557]”: 7.92 ± 0.54. The same measure for “AATATAGATATAAAAAGTACATTATATATATATATA [XGTACX_site6899]”: 9.4 ± 0.3. As for “AGAATTGTTGTTAAAGAATTCTTTTTTATCCTTCCC [CACACA_negctrl_site1820]”, the “gcPBM binding intensity (ln)” value was 7.61 ± 0.37. The result for “TTTGTATATATTAATGTACACACATGCGTATGTTCG [CACACA_site9193]” reads 7.71 ± 0.52; that for “ATAATACTACCTACATGTACTTATATATAAATGAAT [XGTACX_site3417]”, 8.11 ± 0.47. In the case of GTTTTAACAAAATTAGTGCATTTATCAATTATATAA, the “gcPBM binding intensity (ln)” value stood at 10.5 ± 0.14. Consider “TTTTTTTTTTCAATGGCACACATTTTAGATTTATGC [CACACA_site1074]”, for which the “gcPBM binding intensity (ln)” value stood at 8.24 ± 0.67. For “ACATCAAGCGGACACACACACACACCGACAGACACA [CACACA_site4361]”, the “gcPBM binding intensity (ln)” value worked out at 8.16 ± 0.46. The result for AAAGAATCAAGAATAGTGCAAATATGTATAACCTTT reads 10.39 ± 0.078; that for “ATAAAATAATGAAAAACACACATTTTTATTTGTATA [CACACA_site3369]”, 7.34 ± 0.54. The same measure for “ATATATATATATGAATCACACACAAAAAATATAGAG [CACACA_site9298]”: 9.24 ± 0.21; for “AAGATTATAAATATATGTACATAAATATATTATATA [XGTACX_site8056]”: 7.6 ± 0.28. The result for “ATTGTTTTTTTTTCTTTGTGGAATGAATGAATATAT [XGTACX_negctrl_site603]” reads 7.91 ± 0.59. Regarding “AATAACATGTTATATACACACATTATGAAGTCTTCA [CACACA_site746]”, the “gcPBM binding intensity (ln)” value worked out at 7.46 ± 0.71. On to “TATATATATAAACACACACACATATATATATATATA [CACACA_site4584]”, for which the “gcPBM binding intensity (ln)” value amounted to 9.28 ± 0.42. The same measure for “AAAAAAAAAAAATGCACACATATATTTCCATATACA [CACACA_site1471]”: 8.975 ± 0.021. The result for “ATATATATATATATATGTACTAATTAATATTTCGAG [XGTACX_site580]” reads 9.45 ± 0.49; that for “ACAAAATTTACAAAATGTACAAAATTTACAAAGTAT [XGTACX_site6463]”, 7.54 ± 0.56. For the sequence “GTATATCATATTTCATGTACACAAAAAAATAAAAAT [XGTACX_site704]”, the “gcPBM binding intensity (ln)” value was 8.2 ± 0.33. The same measure for “ATATATTTGATAAGAGTGCACAAATACATACATACA [GTGCAC_site9704]”: 10.94 ± 0.071; for “TATATATATTATATATGTACATATTATATATATATA [XGTACX_site7300]”: 8.81 ± 0.22. The same measure for AAAAATACAATTTTCTTGCACTTTGTTGCATTGTAA: 9.79 ± 0.32. With “AACATATACACGAACACACACACATATAAATAAATA [CACACA_site6380]”, the “gcPBM binding intensity (ln)” value came to 8.07 ± 0.36.

Regarding “CAAAATATAAAAACATGTACATAAATATTAACGAAT [XGTACX_site2380]”, the “gcPBM binding intensity (ln)” value turned out to be 8.05 ± 0.8. The result for “ATATGTTTATTAAATGCATGTCAAGACTTAAGATAT [TGCATGCA_site329]” reads 7.89 ± 0.64; that for “TCATCCACATATTGTAGTACAAGATAATTGTTTATT [XGTACX_site1634]”, 8.07 ± 0.24. The result for “TTTAATACTTTTTTCTGTACACACTTGATTTACTAT [XGTACX_site5925]” reads 8.18 ± 0.48; that for “AAAAAAAAAAGACACACACACACACGGAGATATATA [CACACA_site6216]”, 7.76 ± 0.41; that for “AATTTTAATTATATCACACATAATATATACCAAAAA [CACACA_site6011]”, 7.65 ± 0.68.

For the sequence “TACATATTTTTATATACACACAATAATTACTATAAA [CACACA_site6879]”, the “gcPBM binding intensity (ln)” value came out at 7.65 ± 0.3. The same measure for “AAAATACATAAACGTTCACACATTGAAGATCACAAG [CACACA_site5347]”: 7.66 ± 0.46; for TAGGTACATAAATTGGTGCAAAGTGTACATATATAT: 10.2 ± 0.11; for “CATATTTTCAAAATTAGTACATAAAAAAAAAAATAT [XGTACX_site3101]”: 8.03 ± 0.5.

Take “TATAATCATATATACACACACATATATATATATATA [CACACA_site2168]”: the “gcPBM binding intensity (ln)” value stood at 9.27 ± 0.62. The same measure for “TCTTCCGCTTTATGGAGTACTATGGTAGCCTTTCCT [XGTACX_site2958]”: 7.63 ± 0.66; for “GACCTACAAAAAGGCACACATATACGCATACATACA [CACACA_site2179]”: 8.41 ± 0.42.

The record behind these values is the supplement of paper PMC11417369.
